Data on 73 sequences can be found in PMC10726135.

This is one part of the list. At the low end of the ranking the order means little. Measured with an extract: partners may take part in the binding.

The assay deals with T1, HNF4alpha8 (COS-7 nuclear extract) (UniProt P41235-5).
T1 sequence: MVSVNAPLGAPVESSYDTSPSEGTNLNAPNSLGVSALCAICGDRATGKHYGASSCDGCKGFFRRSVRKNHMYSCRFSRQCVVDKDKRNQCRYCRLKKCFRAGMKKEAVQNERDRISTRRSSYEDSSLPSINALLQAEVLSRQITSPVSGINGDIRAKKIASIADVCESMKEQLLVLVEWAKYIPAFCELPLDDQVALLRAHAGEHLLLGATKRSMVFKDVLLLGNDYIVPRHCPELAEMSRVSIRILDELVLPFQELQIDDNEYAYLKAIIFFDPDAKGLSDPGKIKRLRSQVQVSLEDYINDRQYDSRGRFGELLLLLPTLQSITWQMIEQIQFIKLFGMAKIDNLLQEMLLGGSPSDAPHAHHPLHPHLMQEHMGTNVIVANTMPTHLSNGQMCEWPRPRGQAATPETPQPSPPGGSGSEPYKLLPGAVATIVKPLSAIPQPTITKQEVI
Briefly: protein-binding microarray. As to conditions: COS-7 nuclear extract on double-stranded Agilent 4x180k PBM; binding buffer, salt, pH and temperature not given; high values mean tight binding; double strand, one strand shown; sequences stand for … in …GCCTAGGGAGATTAGAGTATCGGTCGA
Consider TGAACGACTTGACAAAGGTCATTCATGTGC, for which the binding signal (log2 normalized intensity) came to 4.32.
Take AGTAAAACTGGAAAATCAAAGACTCAGATG: the binding signal (log2 normalized intensity) was -1.37.
In the case of AAGTAGTCAGTGTCCAGCACACCTTTTTTT it was -0.328; in that of TGTCATCCTTTTGCTTAAAACGCCTGCAGA, -1.39; in that of TCAAAGGCAGCCTTCGTTTGCTTTTCCTTA, -1.05.
As for TCTTCAGAGAGTCTGGCTGACTAACAAGCT, the binding signal (log2 normalized intensity) is -1.24.
As for ATTCCAGAGAAGCACATCCAGGCAGCTTCA, the binding signal (log2 normalized intensity) is -1.26.
As for ATGCCCCTCCCAGGGACACATGCCCCTTCC, the binding signal (log2 normalized intensity) turned out to be 5.63.
In the case of ATCCAGTCCTCACCCAGAACTTTGACCGTT it was 5.26; in that of GTACTTTTCTGTTTGTCTTACTGTGTTGTC, 1.95.
On to TAGTTACCCAAGGGATGGCATCACCTTTGG, for which the binding signal (log2 normalized intensity) worked out at 1.61.
Take CCCTAATCTCACTCTTTGTTATTTATTGGC: the binding signal (log2 normalized intensity) was found to be 1.83.
For AGTCTGTGACTTGATCTTTGACTGGATTCT, the binding signal (log2 normalized intensity) worked out at 2.67.
In the case of CCCTGAGGCCAATGAGGGAAGTTATTAACA, the binding signal (log2 normalized intensity) was -1.16.
For AGTATTGAGGCCGGAGGGCAGGCGGGCCGC, the binding signal (log2 normalized intensity) was -1.31.
Consider GCCTCACTAAGTCCTGCTTAGAGCATCCAA, for which the binding signal (log2 normalized intensity) is -1.44.
On to ACCTTTGCTCATGTCCTCTTGCTTCCTGGG, for which the binding signal (log2 normalized intensity) came out at 1.45.
Consider CAGGGAGAAGGCAAAAATGCAGGCAATGAA, for which the binding signal (log2 normalized intensity) is -1.39.
As for AGTATGCAGCGGGCAGCCCGTGTGGGCGGG, the binding signal (log2 normalized intensity) was -1.23.
Regarding CTGTCACACTTGCCCTTTGCCCTCACTGGT, the binding signal (log2 normalized intensity) turned out to be 7.78.
As to CAACAAGGTGGAGACCTCTGCAGGAGGACT, the binding signal (log2 normalized intensity) was -1.33.
In the case of AAAGGGACAGGGGTCATCAGGGGTCCTGGC, the binding signal (log2 normalized intensity) was 1.97.
On to CACTTGGATAGCGCGTGGCCCAAGGCCTCT, for which the binding signal (log2 normalized intensity) was -1.21.
As to CAGGGTTGTGCAGGACTGCGTAACTTACAG, the binding signal (log2 normalized intensity) was -1.39.
As to ATCAGAGCAAAGTTCAATTTCCAACAAATG, the binding signal (log2 normalized intensity) was determined as 3.74.
With GCCACCTGAAGGCAGGTGTGGGTTGGGGGT, the binding signal (log2 normalized intensity) was -1.05.
Consider ACTTCAAGGTCCATTTGAGGCTAAGTGTAG, for which the binding signal (log2 normalized intensity) was 1.07.
TTCCAATCTGGTGAAAGATGATGAGGCGGT: the binding signal (log2 normalized intensity) was -1.24.
Turning to ACATTGTTAGCATAGCCTATCTGGTGCAGT, the binding signal (log2 normalized intensity) is 0.746.
As for GTGAATCCTTAAGATTCCTGCTCTAATGTT, the binding signal (log2 normalized intensity) was -0.915.
Consider TCTCTAGATCTCAGTTGGTCCAAGGTACAT, for which the binding signal (log2 normalized intensity) turned out to be 3.61.
In the case of CAGTAACTCACTATCAGGAAACTCTTTCCT it was -1.1; in that of AGTAGAAGAGCCAAAATGTGTTAGGCAAGC, -1.38.
In the case of TTCTCCTCCAGGACCTTGCCCTTTAGTTAT, the binding signal (log2 normalized intensity) stood at 4.72.
Regarding CTCAAGGAGGCCCAAAGGAAGGACTTCAGG, the binding signal (log2 normalized intensity) was -1.35.
Regarding GTATTTTTTCAACATATACTTTGAACTTGT, the binding signal (log2 normalized intensity) amounted to 4.04.
On to ATGGAGCTAAACAATTAAAGAACTCTTCAT, for which the binding signal (log2 normalized intensity) was -1.16.
Regarding GTTATCTTGGGGCTGATATCTCTCTGGCTG, the binding signal (log2 normalized intensity) was -1.33.
Regarding GGTAAATATTATCATTGCCTCTGGTATGCA, the binding signal (log2 normalized intensity) was determined as 1.23.
As for GGGTTTGGCTCCAAGGCTGAAGGTCTCGAG, the binding signal (log2 normalized intensity) was found to be 0.377.
In the case of GACCTTTGAACACCACAAGTTTGAACTGCA, the binding signal (log2 normalized intensity) amounted to 5.65.
For the sequence GTGTGCCCCACTTATCTGCTATTCTGGCAA, the binding signal (log2 normalized intensity) was -1.34.
In the case of ATAATTCAGTTTCATTGCACTTTGCCCTCT it was 9.39; in that of ATGAGTTCCCGGCAAGCCGACTTACAGGAC, -1.31; in that of TGGACTTTGGTCCTGGTCAGACTTGCCACG, 5.42.
Turning to TCTCCTCCTCCCATTCCAGCTCTTTACTCA, the binding signal (log2 normalized intensity) was found to be 0.177.
Take TTAGCCCAGTGAGACCCATTTTGGACTTTG: the binding signal (log2 normalized intensity) came to 7.42.
Turning to AAGACATTGCCTGGCATTATCAGTGCTGCC, the binding signal (log2 normalized intensity) was -0.907.
In the case of TTACAAAAGAAGAAGATGATATGGTCAGTG, the binding signal (log2 normalized intensity) stood at 0.815.
For the sequence ACAATTTTCAAGAACAAACAAATTTAGCAA, the binding signal (log2 normalized intensity) is -1.29.
In the case of TTAATATATGAAGATGGGCATTAGGTGGAC it was 1.72; in that of CACAGTGGGGCAGATCACAAGCACCCCCCA, 4.06.
For the sequence GCTTCCAGTTAAGCAGGTTCACATTTTTGT, the binding signal (log2 normalized intensity) came out at 1.28.
Take AACTTTGGACCACATATAGAGAAGCCAGGG: the binding signal (log2 normalized intensity) was -1.33.
For AACAGGAATTCAAAGGTGCAAAGGTTAAAA, the binding signal (log2 normalized intensity) stood at 6.07.
In the case of CGGGAATCTGACCTTTGGGACATTCCCCAG it was 5.52.
In the case of ACCAGGGGGCAGAGTGAGCAGCACTTTTGG it was -1.04; in that of TGGATTACATACCCAAGTTCCCTCTCAGGA, -0.0575.
For the sequence GGGGTCTGGTTTCTAGGTAGATAAGGGAGT, the binding signal (log2 normalized intensity) stood at 0.189.
In the case of ACTCTCTCTCTGTGTCACATACACCTGCGT it was 1.31.
For the sequence CTTACGGCCCTGTGGTGTTCGCTAAGATGT, the binding signal (log2 normalized intensity) turned out to be 0.705.
For AGCTGCCCTTTGCACATGCCCCTCCCAGGG, the binding signal (log2 normalized intensity) was found to be 2.81.
Turning to TCCTGTCCACCCTGAAAGAGAGGAGGCTGA, the binding signal (log2 normalized intensity) is -1.3.
In the case of CCAAATTCTTTTTTTTTTTTTTTTTTTTTT, the binding signal (log2 normalized intensity) stood at 3.27.
In the case of AAAAATCTCACTCACCCTAAGCCCTGCTCA it was -1.24; in that of CAGACGGATTCCACGGGGGTGCAGCCAAGT, -1.34; in that of CAAGGTAAACATGATGAAAGCAATGTTTGA, 0.597.
As for TGAAGTGAGTTGTTTGTTTTGAGATAGGGT, the binding signal (log2 normalized intensity) was 1.76.
On to CCCAGCCAGAATTCTCCCTGCAGTCCTCTG, for which the binding signal (log2 normalized intensity) was -1.3.
Consider TGTACCCGTCCACCTTTGGATCCAGCTCCT, for which the binding signal (log2 normalized intensity) stood at 2.67.
Consider ACCCTGACTCTGCAGCCGAACCGGCACGGT, for which the binding signal (log2 normalized intensity) is -1.4.
Consider GGAAATCCCGAAATAGAGCCAAACATGATA, for which the binding signal (log2 normalized intensity) is -1.36.
Turning to ATGCTGATGGGGACCACAGAGAACTAATCT, the binding signal (log2 normalized intensity) was -1.31.
